According to patent publication US20230081195A1 (INSTITUTE OF GENETICS AND DEVELOPMENT BIOLOGY CHINESE …, published 2023):

Biological target: T1, OML4-MBP (rice, UniProt Q64M78 1-1001)
T1 construct: Expressed in E. coli; Order of the pieces follows the printed name
T1 sequence: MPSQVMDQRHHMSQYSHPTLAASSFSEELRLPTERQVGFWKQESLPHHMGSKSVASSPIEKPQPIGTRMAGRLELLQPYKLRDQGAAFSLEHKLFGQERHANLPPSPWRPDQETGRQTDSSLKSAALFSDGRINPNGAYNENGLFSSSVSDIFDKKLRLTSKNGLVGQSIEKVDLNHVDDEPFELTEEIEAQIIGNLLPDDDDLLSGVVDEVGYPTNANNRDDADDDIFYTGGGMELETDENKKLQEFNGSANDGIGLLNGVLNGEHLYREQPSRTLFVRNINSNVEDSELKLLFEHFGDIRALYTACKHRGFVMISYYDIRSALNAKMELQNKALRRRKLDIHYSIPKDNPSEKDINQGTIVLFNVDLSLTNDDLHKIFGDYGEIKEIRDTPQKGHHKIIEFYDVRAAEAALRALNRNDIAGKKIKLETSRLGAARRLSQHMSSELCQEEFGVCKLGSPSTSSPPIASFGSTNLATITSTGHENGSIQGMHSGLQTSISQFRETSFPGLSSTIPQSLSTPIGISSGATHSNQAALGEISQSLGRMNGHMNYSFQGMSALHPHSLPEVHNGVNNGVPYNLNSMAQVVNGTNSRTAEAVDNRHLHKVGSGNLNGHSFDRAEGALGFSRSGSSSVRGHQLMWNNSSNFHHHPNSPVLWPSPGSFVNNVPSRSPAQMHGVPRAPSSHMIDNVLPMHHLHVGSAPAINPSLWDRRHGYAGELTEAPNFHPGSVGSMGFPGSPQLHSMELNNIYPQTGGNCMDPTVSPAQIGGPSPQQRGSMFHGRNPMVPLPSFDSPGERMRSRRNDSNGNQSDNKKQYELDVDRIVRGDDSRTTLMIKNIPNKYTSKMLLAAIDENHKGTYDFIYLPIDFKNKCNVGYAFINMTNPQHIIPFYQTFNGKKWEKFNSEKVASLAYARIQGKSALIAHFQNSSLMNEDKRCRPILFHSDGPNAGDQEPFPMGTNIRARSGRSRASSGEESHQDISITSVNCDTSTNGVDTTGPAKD
Test: in vitro pull-down on MBP beads, immunoblot with anti-GST
Experimental: To investigate whether OML4 could directly interact with GSK2, we performed an in vitro pull-down assay (FIG. 5D). We expressed maltose binding protein (MBP)-fused OML4 (OML4-MBP) and GST tag-fused GSK2 (GSK2-GST) proteins in E. coli cells. […] The co-immunoprecipitation (Co-IP) analyses were used to examine the association of GSK2 and OML4 in N. benthamiana. We co-expressed GSK2-GFP and OML4-MYC in N. benthamiana leaves (FIG. 5E). Total proteins were isolated and incubated with MYC beads to immunoprecipitate OML4-MYC. The anti-MYC and anti-GFP antibodies were used to detect immunoprecipitated proteins, respectively.
Recombinant proteins (OML4-MBP and MBP) and the prey proteins (GSK2-GST and GST) were incubated in TGH buffer (50 mM HEPES, PH 7.5, 10% glycerol, 150 mM NaCl, Triton X-100, 1.5 mM MgCl₂, 1 mM EGTA, and protease inhibitor cocktail tablet) for 0.5 hr at 4° C. with 20 μl MBP-beads per tube. Centrifuge 500 rpm for 2 mins and discard supernatant to stop the reaction. Wash beads with ice-cold TGH buffer for 5 times and then add 50 μl SDS-loading buffer. Denatured the samples at 98° C. for 5 mins and finally subjected to the SDS-PAGE analysis. We used anti-MBP (Beyotime) and Anti-GST (Beyotime) to detect the input and the pull-down samples, respectively.

B1: GST (other)
chain: not shown
notes: Control prey protein of the pull-down assay; also called negative control (GST)
  binding result: no binding
